Source: PubChem BioAssay AID1030 (National Center for Advancing Translational Sciences (NCATS), 2008)
The whole screen tested about 220,000 compounds, of which about 16,000 (7.3%) were called active. The shares of active, inactive and inconclusive entries below differ from those in the screen. Calls come from the whole dose curve; as a rule, active = well fitted inhibition curve with a large enough effect (not every such curve was filed as active); inconclusive = small, poorly fitted or top-dose-only effect, or another doubt; inactive = no such curve, though single readings can be large or run the other way. Potencies of inconclusive entries are left out as doubtful fits.

biological target: Aldehyde dehydrogenase 1A1 (Homo sapiens) (UniProt P00352); assay: qHTS Assay for Inhibitors of Aldehyde Dehydrogenase 1 (ALDH1A1); conditions: Purified ALDH1A1, NADH fluorescence, propionaldehyde substrate; series mostly up to 75.3 µM
UniProt P00352, sequence (P00352 whole entry, looked up): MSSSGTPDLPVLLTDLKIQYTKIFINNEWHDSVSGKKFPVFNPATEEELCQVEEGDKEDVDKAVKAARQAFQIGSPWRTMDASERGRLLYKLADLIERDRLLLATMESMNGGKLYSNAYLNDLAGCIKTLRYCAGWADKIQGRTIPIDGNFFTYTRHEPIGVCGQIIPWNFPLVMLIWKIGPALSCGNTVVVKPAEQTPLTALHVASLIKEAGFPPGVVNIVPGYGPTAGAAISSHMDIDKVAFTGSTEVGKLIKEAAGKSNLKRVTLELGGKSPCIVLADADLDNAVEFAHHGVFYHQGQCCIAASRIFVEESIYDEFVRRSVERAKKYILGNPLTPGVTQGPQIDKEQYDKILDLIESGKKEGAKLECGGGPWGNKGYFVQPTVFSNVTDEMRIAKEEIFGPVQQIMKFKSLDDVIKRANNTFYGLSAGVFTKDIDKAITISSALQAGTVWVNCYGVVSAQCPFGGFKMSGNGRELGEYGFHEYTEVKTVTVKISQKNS
Potency is the fitted concentration of half-maximal effect; tags give direction and shape of the fitted curve.

Row | SMILES | Potency
1 | Cn1c(Cc2ccccc2)nnc1SCC(=O)c1cccs1 | inactive
2 | COC(=O)[C@@]1(Cc2ccc(OC)cc2)[C@@H]2C(=CC(=O)[C@H]2CC(=O)C(=O)N(C)C)CN1C(=O)c1ccccc1 | inactive
3 | COc1cc(CNCCCN2CCOCC2)ccc1OCC(=O)NC(C)(C)C | inactive
4 | Nn1c(Cc2ccccc2)nc2sc3c(c2c1=O)CCC3 | inconclusive [inhibitor, single point]
5 | Cc1cc(NC(=O)c2cnn3c(C(F)(F)F)cc(-c4ccccc4)nc23)no1 | inactive
6 | O=C(Nc1ccccc1)c1ccccc1N=Cc1ccccc1O | inconclusive [inhibitor, partial curve]
7 | Cc1cc(C)c2nc(N3CCN(C)CC3)c(C#N)cc2c1 | inconclusive [inhibitor, partial curve]
8 | COc1ccc(CC(NC(C)=O)C(=O)NC2CCN(c3nc(C)cc(C)c3C#N)CC2)cc1 (configuration not stated) | inconclusive [inhibitor, single point]
9 | CN(Cc1cccs1)S(=O)(=O)c1cccs1 | inconclusive [inhibitor, partial curve]
10 | CCCC(=O)Nc1nc2ccc(OCC)cc2s1 | inactive
11 | CC1CC(C)CN(c2oc(-c3ccccc3Cl)nc2C#N)C1 (configuration not stated) | inconclusive [inhibitor, partial curve]
12 | CC(C)c1ccccc1NC(=O)COC(=O)c1ccc(Cl)c(S(=O)(=O)N2CCCCCC2)c1 | inactive
13 | C=CCN(CC=C)C(=S)NCCc1ccc(OC)c(OC)c1 | inactive
14 | CC1CCN(CC(=O)c2cccs2)CC1 | inconclusive [inhibitor, partial curve]
15 | COCCn1c(SCC(=O)Nc2ccc3c(c2)OCCO3)nnc1-c1c[nH]c2ccccc12 | inconclusive [inhibitor, partial curve]
16 | CC(=O)OCC1OC(C#CCC2CCCCC2)C=CC1OC(C)=O (configuration not stated) | active: 4.47 µM
17 | O=C(COC(=O)Cc1ccsc1)NCC12CC3CC(CC(C3)C1)C2 | inconclusive [inhibitor, single point]
18 | CCOc1ccc(N(CC(=O)Nc2ccccc2C)S(=O)(=O)c2c(C)noc2C)cc1 | inconclusive [inhibitor, single point]
19 | COc1cccc(/C=N/NC(=O)c2ccccc2N(Cc2ccccc2)S(=O)(=O)c2ccccc2)c1OC | inconclusive [inhibitor, partial curve, poor fit]
20 | Cc1ccc(Cn2c(SCC(=O)NCC3CCCO3)nc3ccsc3c2=O)cc1 (configuration not stated) | active: 20 µM
21 | O=C(c1cccc(F)c1)N1CCC2(CCCN(c3ccccn3)C2)CC1 | inconclusive [inhibitor, partial curve]
22 | Cc1ccc(S(=O)(=O)N(CC(=O)N2CCC(C(N)=O)CC2)c2cccc(C(F)(F)F)c2)cc1 | active: 12.6 µM
23 | CCOc1c2ccc(C(=O)NCc3ccc(C)cc3)cc2nn1CCOC | inconclusive [inhibitor, partial curve]
24 | CCNC(=O)Nc1ccc(-n2nc(C)c(C(=O)OCC)c2C)nc1 | inactive

Row | SMILES | Potency
25 | CCN(CC)CCCNC(=O)c1cc2c(=O)n(C)c3ccccc3c2n1C | inconclusive [inhibitor, single point]
26 | Cc1nn(-c2ccccc2)c(Cl)c1/C=C1/C(=N)N2N=C(C(C)C)SC2=NC1=O | inconclusive [inhibitor, full curve]
27 | CCn1c(SCC(=O)N/N=C/C=C\c2ccccc2[N+](=O)[O-])nc2ccccc21 | inconclusive [inhibitor, full curve]
28 | COc1ccc(C(=O)CNc2ccc3ccccc3c2)cc1 | inconclusive [inhibitor, partial curve]
29 | CC(C)CN1CCN(Cc2cccn2-c2cccnc2)CC1CCO (configuration not stated) | active: 3.55 µM
30 | CC(C)Sc1nnc(NC(=O)C2CC2)s1 | active: 0.0501 µM
31 | CCN(CC)S(=O)(=O)c1ccc(F)c(C(=O)NCCC(C)C)c1 | inactive
32 | COc1ccc(C(=O)Nc2cccc(/C(C)=N/NC(=O)c3ccc([N+](=O)[O-])c(C)c3)c2)cc1OC | inconclusive [inhibitor, partial curve]
33 | Cc1ccccc1Cn1cc(NC(=O)c2cc3nc(-c4ccco4)cc(C(F)(F)F)n3n2)cn1 | inconclusive [inhibitor, partial curve]
34 | O=C1OC(c2ccccc2)=N/C1=C\C=C\c1ccco1 | inconclusive [inhibitor, single point]
35 | CCC(Sc1nc2cc3c(cc2c(=O)n1Cc1ccco1)OCO3)C(=O)Nc1cccc(OC)c1 (configuration not stated) | inconclusive [inhibitor, full curve]
36 | CCc1nccn1S(=O)(=O)c1ccc2ccc(C)cc2c1 | inconclusive [inhibitor, partial curve, poor fit]
37 | COc1cccc(CC(=O)Nc2nc(C)cs2)c1 | inconclusive [inhibitor, single point]
38 | CCCCc1c(C)nc2c(OC)cccc2c1SCCC(=O)O | inconclusive [inhibitor, partial curve]
39 | COC(=O)c1ccnc(SCC(=O)c2ccccc2)c1 | inactive
40 | CC(=O)N1N=C(c2ccccc2)OC12CCCC2 | inconclusive [inhibitor, single point]
41 | Cc1ccc2[nH]c(=O)c3cc(C(=O)NCC4CCCO4)sc3c2c1 (configuration not stated) | inconclusive [inhibitor, partial curve]
42 | O=S(=O)(Nc1nc2c(s1)CCCC2)c1ccc(Br)cc1 | active: 12.6 µM
43 | COCCCn1c2nc3ccccc3nc2c2c(=O)n(Cc3ccccc3Cl)cnc21 | inconclusive [inhibitor, full curve]
44 | O=C(COC(=O)c1cccc2ccccc12)NCCCc1ccccc1 | inconclusive [inhibitor, single point]
45 | Cc1cc(=O)[nH]c(NN=C2CCC(C(C)(C)C)CC2)n1 (configuration not stated) | inconclusive [inhibitor, single point]
46 | COc1ccc(Oc2nccc(-c3ccc(F)cc3)c2C#N)cc1 | inactive
47 | COc1c(C)c2c(c(O)c1CC=C(C)CCC(=O)OCCN1CCOCC1)C(=O)OC2 | inconclusive [inhibitor, single point]
48 | CCc1ccc2c(c1)[C@]1(C(=O)N2)[C@@H]2C(=O)N(Cc3ccccc3)C(=O)[C@@H]2[C@@H]2CCCN21 | inconclusive [inhibitor, single point]

Row | SMILES | Potency
49 | Cc1cccc(-c2nnc3n2N=C(c2ccccc2Br)CS3)c1 | inconclusive [inhibitor, partial curve]
50 | CC1(C)Cc2c(C#N)c(N3CCOCC3)nc(Cc3ccccc3)c2CO1 | inconclusive [inhibitor, partial curve]
51 | CCc1ccc(-c2cc(C(F)(F)F)n3nc(C(=O)Nc4c(C)nn(Cc5ccc(F)cc5)c4C)cc3n2)s1 | inconclusive [inhibitor, partial curve]
52 | COc1ccc(OCc2nnc(SCC(=O)N3c4ccccc4Sc4ccc(Cl)cc43)o2)cc1 | inconclusive [inhibitor, single point]
53 | CCOC(=O)c1c(C)n(C)c2ccc(OCC(O)Cn3nc(C)cc3C)cc12 (configuration not stated) | inactive
54 | COCCNC(=S)c1ccc(Br)cc1 | active: 8.91 µM
55 | Oc1c(Br)cc(Br)cc1CNc1ccc(F)cc1 | inconclusive [inhibitor, single point]
56 | c1ccc(OCc2nnc3n2N=C(c2ccccc2)CS3)cc1 | active: 10 µM
57 | COc1cccc(N2CCN(C(=O)CN(C)S(=O)(=O)c3ccc4c(c3)c(=O)n(C)c(=O)n4C)CC2)c1 | inactive
58 | C=C(C)CNC(=S)N/N=C/c1ccccc1OCC(=O)O | inconclusive [inhibitor, single point]
59 | CC(C)C(c1nnnn1C1CCCCC1)N1CCc2ccccc2C1 (configuration not stated) | active: 25.1 µM
60 | Cc1ccc(-n2cc(S(=O)(=O)c3ccc(C)cc3)[nH]c2=O)cc1 | inactive
61 | CCOC(=O)c1ccc(Oc2nc(OC)nc(N(C)C)n2)cc1 | inactive
62 | COCCCN1C(=O)c2ccc(C(=O)Nc3ccc(OC)cc3)cc2C1=O | inconclusive [inhibitor, full curve]
63 | Cc1csc(SCC(=O)NC(=O)NC2CCCC2)n1 | inconclusive [inhibitor, partial curve]
64 | CSc1ccc(CN2CCN(CC=C(C)C)C(CCO)C2)cc1 (configuration not stated) | inactive
65 | CN1CCN(NC(=O)CN2C(=O)/C(=C/c3ccccc3Cl)SC2=S)CC1 | inconclusive [inhibitor, single point]
66 | Cn1ncc([N+](=O)[O-])c1C(=O)Nc1ccc2c(c1)OCCO2 | inactive
67 | COc1cc(C2C3=C(Nc4ncnn42)c2ccccc2CC3)cc(OC)c1OC (configuration not stated) | inactive
68 | C=CCn1c(COc2ccccc2)nnc1SC(C)C(=O)N/N=C/c1cc(Cl)ccc1O (configuration not stated) | inactive
69 | CS(=O)(=O)c1ccc(Cl)c(NC(=O)COC(=O)c2c(Cl)cccc2Cl)c1 | inconclusive [inhibitor, single point]
70 | O=C(Nc1ccc(Cc2ccncc2)cc1)c1ccc(N2CCOCC2)c([N+](=O)[O-])c1 | inconclusive [inhibitor, single point]
71 | CCc1nnc(/N=C/c2c(O)n(-c3ccc(Cl)cn3)c(=O)c3ccccc23)s1 | inconclusive [inhibitor, single point]
72 | O=C(c1ccc([N+](=O)[O-])cc1[N+](=O)[O-])n1cnc2ccccc21 | inconclusive [inhibitor, single point]
